Here are results for two compounds from publication PMC5158307, “Substrate specificity characterization for eight putative nudix hydrolases. Evaluation of criteria for substrate identification within the Nudix family” (Proteins, 2016).

The assay addresses T1, B9WTJ0_STRSU (Streptococcus suis, UniProt A0A0H3MW56).
T1 construct: gene SSUBM407_1338
T1 sequence (A0A0H3MW56 1-205): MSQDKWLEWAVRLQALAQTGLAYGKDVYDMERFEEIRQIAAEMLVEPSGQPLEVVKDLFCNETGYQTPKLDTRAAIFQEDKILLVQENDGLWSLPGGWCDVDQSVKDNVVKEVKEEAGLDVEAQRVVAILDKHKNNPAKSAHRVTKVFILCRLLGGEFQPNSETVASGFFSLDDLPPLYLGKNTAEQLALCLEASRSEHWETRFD
Kind of assay: Pi-sensor plate-reader screen. Conditions: 5 μM substrate, pH 7.6, 37 °C, 1 mM MgCl2.

SMILES strings stand for the structures.

In the case of `Nc1ncnc2c1ncn2[C@@H]1O[C@H](COP(=O)(O)OP(=O)(O)OP(=O)(O)OP(=O)(O)OP(=O)(O)OC[C@H]2O[C@@H](n3ccc(=O)[nH]c3=O)[C@H](O)[C@@H]2O)[C@@H](O)[C@H]1O` [Ap5U], the Pi-sensor plate-reader screen entry is “B9WTJ0_STRSU catalyzes the hydrolysis of a variety of dinucleotide polyphosphates such as Ap5U and Gp5G”.

Regarding `Nc1nc2c(ncn2[C@@H]2O[C@H](COP(=O)(O)OP(=O)(O)OP(=O)(O)OP(=O)(O)OP(=O)(O)OC[C@H]3O[C@@H](n4cnc5c(=O)[nH]c(N)nc54)[C@H](O)[C@@H]3O)[C@@H](O)[C@H]2O)c(=O)[nH]1` [Gp5G], the Pi-sensor plate-reader screen entry is “B9WTJ0_STRSU catalyzes the hydrolysis of a variety of dinucleotide polyphosphates such as Ap5U and Gp5G”.
